Reference: PubChem BioAssay AID1963576 (National Center for Advancing Translational Sciences (NCATS), 2024)
Out of some 46,000 compounds screened, about 60 (0.1%) were called active. Roughly 3% stayed inconclusive and do not appear here. Calls come from the whole dose curve; as a rule, active = well fitted inhibition curve with a large enough effect; inconclusive = small, poorly fitted or top-dose-only effect; inactive = no such curve, though single readings can be large or run the other way. Some of the results follow.

Assay: Primary qHTS assay for Inhibitors of ovarian cancer metastasis using an organotypic tumor microenvironment (TME) model.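 For activity change, negative = inhibition: plate controls were DMSO wells for no effect and tomatine positive control wells for full effect.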 Note: nearly all actives have a fitted effect of over 65% in size.
Conditions: SKOV3ip1-GFP adhesion/invasion on 3D omental model, fluorescence; series mostly up to 45.8 µM; activity change, negative = inhibition: at the top concentration
Method in brief: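 Primary human omental fibroblast/mesothelial 3D culture pre-formed 48 h. SKOV3ip1-GFP cells added with compounds (0.36-46 umol/L), incubated 2 h RT/16 h 37 C, fixed; GFP cells quantified at 488/509 nm.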

Activity change, negative = inhibition, inactive:
COC(=O)c1ccc(NS(=O)(=O)c2ccc3[nH]c4c(c3c2)CCCC4)cc1 6.14%
CCOC(=O)C1CCCN(S(=O)(=O)c2cc(Br)cc3c2N(C(C)=O)CC3)C1 (stereo unspecified) 1.93%
CCCn1c(SCC(O)c2ccccc2)nc2ccccc21 (stereo unspecified) -4.76%
COc1cccc(CNC(=O)CCCn2ncn3c(cc4occc43)c2=O)c1 -4.83%
CN[C@@H](C)[C@H]1[C@H](O)C[C@@]2(C)[C@@H]3CC[C@H]4C(C)(C)[C@@H](NC)CC[C@@]45C[C@@]35CC[C@]12C -14.6%
O=C(NCCc1ccc(Cl)cc1)c1ccc2c(c1)N(Cc1ccc(F)cc1)C(=O)CS2 -16.1%
COc1ccc(-c2cc3c(=O)n(CC(=O)Nc4cc(F)ccc4F)ccn3n2)cc1OC -16.3%
Cc1nn(-c2ccccc2)c2sc(C(=O)Nc3ccc(Br)cc3)cc12 -3.22%
CCCCN(Cc1cc2ccccc2[nH]c1=O)C(=O)c1cccc(Cl)c1 -9.46%
COc1ccc(NC(=O)CCS(=O)(=O)c2ccc3c(c2)oc(=O)n3C)cc1OC -4.15%
O=C(Oc1ccc(F)cc1)c1nc(SCc2ccc(F)cc2)ncc1Cl -12.5%
Cc1ccc(C(=O)NCC(c2ccco2)S(=O)(=O)c2cccs2)cc1C (stereo unspecified) 6.68%
Cc1ccc(-c2noc(-c3ccccc3NC(=O)C3CC(=O)N(c4ccc(C)cc4)C3)n2)cc1 (stereo unspecified) 2.74%
Oc1c(C(c2ccccc2F)N2CCN(c3ccccc3F)CC2)sc2nc(-c3ccco3)nn12 (stereo unspecified) -1.44%
Cc1ccccc1N1CCN(S(=O)(=O)c2ccccc2)CC1 1.27%
CCOC(=O)CSC1=Nc2ccccc2C2=NC(CCC(=O)NCc3ccc(OC)cc3)C(=O)N12 (stereo unspecified) 6.83%
Cc1cc(OCCn2c(CCNC(=O)C3CCCCC3)nc3ccccc32)ccc1Cl -13.7%
Cc1ccc(-c2nc(SCC(=O)NCC3CCCO3)c3c(=O)n(C)c(=O)n(C)c3n2)cc1 (stereo unspecified) 2.79%
Cc1cc(C)c(NC(=O)CSc2nccn2-c2cccc(Cl)c2)c(C)c1 -0.374%
COc1ccc(CNC(=O)CCC2N=C3c4ccccc4N=C(SCc4ccccc4F)N3C2=O)cc1 (stereo unspecified) 3.46%
CCCc1cc(N2CCN(c3cccc(C)c3C)CC2)n2cnnc2n1 -19.8%
CN(C)CC[C@H](c1ccc(Cl)cc1)c1ccccn1 -24.1%
COc1ccccc1Cn1ccn(Cc2ccc(C)cc2)c(=O)c1=O 5.01%
COc1ccc(C)cc1NS(=O)(=O)c1ccc2c3c(cccc13)C(=O)N2 -26.2%
O=C(NC1CCCC1)c1ccc2c(=O)n(Cc3ccccc3)c(SCc3cccc([N+](=O)[O-])c3)nc2c1 7.72%
Cc1ccccc1NC(=O)CSc1nc(-c2ccccc2)cn1-c1ccccc1F -27.5%
COCCNC(=O)CSc1nc2cc3c(cc2c(=O)n1CCCC(=O)NCc1ccc2c(c1)OCO2)OCO3 3.73%
Cc1ccccc1OCc1nc2c3cnn(-c4ccccc4F)c3ncn2n1 -9.54%
CCOC(=O)C(Cc1ccccc1)NC(=O)CCc1c(C)nc2nc(C)nn2c1C (stereo unspecified) -9.62%
CN(C)CCCNC(=O)c1ccc(-c2cc(O)c3ncccc3c2)cc1 7.13%
CCOC(=O)Cn1c(=O)cc(C(F)(F)C(F)(F)F)c2c(C)nn(CC)c21 -6.03%
Cc1ccc(Cl)cc1N1CCN(C(=O)Cn2c(-c3cccs3)cc3cc(F)ccc32)CC1 4.59%
CCc1ccc(OCC(=O)Nc2cc(-c3ccc(C)cc3)no2)cc1 11.3%
COc1cccc(NC(=O)CSc2ncc3c(n2)-c2ccc(Cl)cc2N(C)S3(=O)=O)c1 6.13%
CCCNC(=O)c1ccccc1NC(=O)c1nsc2ccccc12 -3.45%
Cc1ccc(OCC(=O)Nc2ccc3nc(SCC(=O)Nc4ccc(C)cc4C)sc3c2)cc1 -8.71%
Cc1c(Cl)cccc1NC(=O)N1CCOc2ccccc21 -2.41%
CCOc1ccc(CNC(=O)C2CCN(C(=O)N3CC(CC)Oc4ccccc43)CC2)cc1 (stereo unspecified) -6.76%
COC(=O)c1sccc1S(=O)(=O)N1CCN(c2ccc(C)cc2C)CC1 2.82%
CCOc1ccc(CNC(=O)c2ccccc2NC(=O)c2nsc3ccccc23)cc1 13.5%
CCOc1ccccc1NC(=O)C(=O)NCCc1sc2nc(-c3ccc(OC)cc3)nn2c1C -6.06%
CCOc1ccc(CCNC(=O)c2cc3c(=O)n(C)c4ccccc4c3n2C)cc1OCC -8.56%
Cc1c(-c2ccc(Cl)cc2)c(=O)oc2c(CN3CCN(CCO)CC3)c(O)ccc12 -3.71%
Cc1ccc(Cn2c(=O)n(-c3ccc(C)cc3)c(=O)c3c2c2cc(C)ccc2n3C)cc1 0.545%
COC(=O)c1ccc(NC(=O)CN2CCN(S(=O)(=O)c3ccc(Br)cc3)CC2)cc1 -25.1%
CCOc1ccccc1NS(=O)(=O)c1ccc2[nH]c3c(c2c1)CCCCC3 5.97%
COc1ccc(S(=O)(=O)N(CC(=O)Nc2cc(C)ccc2OC)Cc2ccccc2)cc1 3.45%
CSc1cccc(NC(=O)C2CCCN(C(=O)c3cnn(-c4ccc(F)cc4)c3-n3cccc3)C2)c1 (stereo unspecified) 1.24%
CCOc1cc(C2c3c(oc4cc(C)cc(C)c4c3=O)C(=O)N2CCO)ccc1O (stereo unspecified) -3.31%
N#C/C(=C\c1cccc(F)c1)c1nc(-c2cc3c(ccc4ccccc43)oc2=O)cs1 11.9%
C[C@@H]1CC(=O)NN=C1c1ccc(NN=C(C#N)C#N)cc1 -5.16%

outcome, inactive:
Cc1cccc(C(c2sc3nc(-c4ccco4)nn3c2O)N2CCN(c3ccccc3F)CC2)c1 (stereo unspecified)
CN(C)c1ccc(-c2nc(-c3cccs3)c(-c3cccs3)[nH]2)cc1
CCc1ccc(NC(=O)[C@H](CSCc2ccccc2)N2Cc3ccccc3C2=O)cc1
O=C1COc2ccc(-c3cc(-c4ccccc4)c4c(n3)-c3ccccc3OC4)cc2N1
COc1cccc(-n2c(-c3ccccc3F)nc3c(cnn3-c3ccc(C)cc3)c2=O)c1
COc1ccc(CNC(=O)CSc2ncc3c(n2)-c2cc(Cl)ccc2N(Cc2ccccc2)S3(=O)=O)cc1
CC(C)(C)c1ccc(C(=O)NC2(C(F)(F)F)NC(=O)N(CCc3ccccc3)C2=O)cc1 (stereo unspecified)
Cc1ccc(NC(=O)NCCOCCn2c(=O)oc3ccccc32)cc1C
Cc1ccc(NC(=O)Nc2ccc3nc(N4CCN(C)CC4)cc(C)c3c2)cc1F
O=C(CSc1cn(CC(=O)N2CCCCC2)c2ccccc12)NCc1ccc(F)cc1
